Assay [1] has as its system RAW-Dual. Kind of assay: IRF Lucia reporter activity, fold change vs agonist alone; cytotoxicity flag (confluency mask): not cytotoxic; higher = enhanced IRF activity. The procedure, abridged: (§1)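 RAW-Dual macrophages were seeded in DMEM at 50,000 cells/well in 384-well plates, given 50 nL of library stock by pin tool, and given a PRR agonist 1 h later. Plates were held at 37 °C, 5% CO2 for 20 hours, after which supernatant was read for IRF by QuantiLuc luminescence and for NF-κB by QuantiBlue absorbance at 620 nm. Reporter activity is expressed as fold change over wells that received agonist alone. A well was called cytotoxic when IncuCyte confluency fell below 70% of agonist controls in both mask sets.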

The test system of assay [2] is RAW-Dual. Kind of assay: IRF Lucia reporter activity, fold change vs agonist alone; higher = enhanced IRF activity. Conditions: agonist: MPLA (TLR4) […]. In outline: as §1
Assay [3] concerns RAW-Dual. Kind of assay: IRF Lucia reporter activity, fold change vs agonist alone; cytotoxicity flag (confluency mask): cytotoxic (confluency <70% of control); higher = enhanced IRF activity. The procedure, abridged:
as §1

[4] abbreviates: agonist: 3'3'-cGAMP (STING) 10 ug/mL.
[5] abbreviates: library stock concentration (final ~1000-fold dilution): 10 mM, cytotoxicity flag (confluency mask): cytotoxic (confluency <70% of control).
Where [6] appears, read: library stock concentration (final ~1000-fold dilution): 10 mM, cytotoxicity flag (confluency mask): not cytotoxic.

In all, about 2,900 compounds were measured (“IRF Lucia reporter activity, fold change vs agonist alone”: median about 0.9, highest 2% from about 2.8 on). The list shows a part of the results.

On to `CC(c1ccc2nccn2c1)n1nnc2ncc(-c3cnn(C)c3)nc21` (stereo not drawn) (library stock concentration (final ~1000-fold dilution): 10 mM), for which the “IRF Lucia reporter activity” value with RAW-Dual [1] (setting [4]) was 0.953; in the assay on RAW-Dual [1] (agonist: LPS (TLR4) 0.1 ug/mL), 1.15.

Regarding `COc1cc(O)cc(O)c1C(=O)C=Cc1ccccc1`, the “IRF Lucia reporter activity” value in the assay with RAW-Dual [2] (setting [5]) worked out at 0.383.

As to `COc1cc(O)cc(O)c1C(=O)C=Cc1ccccc1` (library stock concentration (final ~1000-fold dilution): 10 mM), the “IRF Lucia reporter activity” value turned out to be 0.0702 in the assay on RAW-Dual [3] (setting [4]) and 0.468 in the assay with RAW-Dual [3] (agonist: LPS (TLR4) 0.1 ug/mL).

Take `Cc1onc(-c2c(Cl)cccc2Cl)c1C(=O)NC1C(=O)N2C1SC(C)(C)C2C(=O)O` (stereo not drawn): the “IRF Lucia reporter activity” value with RAW-Dual [2] (setting [6]) is 0.977.

With `Cc1onc(-c2c(Cl)cccc2Cl)c1C(=O)NC1C(=O)N2C1SC(C)(C)C2C(=O)O` (stereo not drawn) (library stock concentration (final ~1000-fold dilution): 10 mM), the entries for the “IRF Lucia reporter activity” value in the assay with RAW-Dual [1] (setting [4]) and in the assay on RAW-Dual [1] (agonist: LPS (TLR4) 0.1 ug/mL) were 1.07 and 0.827, respectively.

In the case of `CCNC1CC(C)S(=O)(=O)c2sc(S(N)(=O)=O)cc21.Cl` (stereo not drawn), the “IRF Lucia reporter activity” value with RAW-Dual [2] (library stock concentration (final ~1000-fold dilution): 10 mM water, cytotoxicity flag (confluency mask): not cytotoxic) stood at 1.33.

For `CCNC1CC(C)S(=O)(=O)c2sc(S(N)(=O)=O)cc21.Cl` (stereo not drawn) (library stock concentration (final ~1000-fold dilution): 10 mM water), the “IRF Lucia reporter activity” value in the assay on RAW-Dual [1] (setting [4]) is 0.944; in the assay with RAW-Dual [1] (agonist: LPS (TLR4) 0.1 ug/mL) it was 0.763.

`O=c1cc(-c2ccc(O)cc2)oc2cc(O[C@@H]3O[C@H](CO)[C@@H](O)[C@H](O)[C@H]3O)cc(O)c12` (library stock concentration (final ~1000-fold dilution): 10 mM): the “IRF Lucia reporter activity” value with RAW-Dual [1] (setting [4]) was 1.07; in the assay with RAW-Dual [1] (agonist: LPS (TLR4) 0.1 ug/mL), 0.935.

Regarding `CNCc1ccc(-c2[nH]c3cc(F)cc4c3c2CCNC4=O)cc1` (library stock concentration (final ~1000-fold dilution): 10 mM), the “IRF Lucia reporter activity” value in the assay on RAW-Dual [1] (setting [4]) was found to be 0.411; in the assay on RAW-Dual [1] (agonist: LPS (TLR4) 0.1 ug/mL), 0.244.

On to `CNCc1ccc(-c2[nH]c3cc(F)cc4c3c2CCNC4=O)cc1`, for which the “IRF Lucia reporter activity” value in the assay on RAW-Dual [2] (setting [6]) stood at 0.291.

Regarding `CCNC(=O)c1noc(-c2cc(C(C)C)c(O)cc2O)c1-c1ccc(CN2CCOCC2)cc1`, in the assay on RAW-Dual [2] (setting [5]), the “IRF Lucia reporter activity” value was determined as 1.42.

Consider `CCNC(=O)c1noc(-c2cc(C(C)C)c(O)cc2O)c1-c1ccc(CN2CCOCC2)cc1` (library stock concentration (final ~1000-fold dilution): 10 mM), for which the “IRF Lucia reporter activity” value in the assay on RAW-Dual [3] (setting [4]) worked out at 0.601; in the assay on RAW-Dual [3] (agonist: LPS (TLR4) 0.1 ug/mL), 1.04.

In the case of `O=c1ncccn1C1OC(CO)C(O)C1O` (stereo not drawn) (library stock concentration (final ~1000-fold dilution): 10 mM), the “IRF Lucia reporter activity” value worked out at 1.04 in the assay on RAW-Dual [1] (setting [4]) and 1.06 with RAW-Dual [1] (agonist: LPS (TLR4) 0.1 ug/mL).

Regarding `O=c1ncccn1C1OC(CO)C(O)C1O` (stereo not drawn), in the assay with RAW-Dual [2] (setting [6]), the “IRF Lucia reporter activity” value was determined as 1.09.

As for `O=C(O)c1cc2cccc([N+](=O)[O-])c2[nH]1` (library stock concentration (final ~1000-fold dilution): 10 mM), the “IRF Lucia reporter activity” value was 1.06 with RAW-Dual [1] (setting [4]) and 1.05 in the assay with RAW-Dual [1] (agonist: LPS (TLR4) 0.1 ug/mL).

Consider `O=C(O)c1cc2cccc([N+](=O)[O-])c2[nH]1`, for which the “IRF Lucia reporter activity” value in the assay with RAW-Dual [2] (setting [6]) stood at 0.977.

Turning to `CC1CN(CC(Cc2ccccc2)C(=O)NCC(=O)O)CCC1(C)c1cccc(O)c1.O.O` (stereo not drawn), the “IRF Lucia reporter activity” value in the assay with RAW-Dual [2] (setting [6]) is 1.04.

For `CC1CN(CC(Cc2ccccc2)C(=O)NCC(=O)O)CCC1(C)c1cccc(O)c1.O.O` (stereo not drawn) (library stock concentration (final ~1000-fold dilution): 10 mM), the “IRF Lucia reporter activity” value in the assay with RAW-Dual [1] (setting [4]) came to 1.04; with RAW-Dual [1] (agonist: LPS (TLR4) 0.1 ug/mL) it was 1.05.

For `Cc1ccccc1C(OCCN(C)C)c1ccccc1.Cl` (stereo not drawn) (library stock concentration (final ~1000-fold dilution): 10 mM), the results for the “IRF Lucia reporter activity” value with RAW-Dual [1] (setting [4]) and with RAW-Dual [1] (agonist: LPS (TLR4) 0.1 ug/mL) were 0.487 and 0.798, respectively.

Take `Cc1ccccc1C(OCCN(C)C)c1ccccc1.Cl` (stereo not drawn): the “IRF Lucia reporter activity” value with RAW-Dual [2] (setting [6]) was 0.916.

For `CCCCCCCCCCCCCCCC(=O)OCC(O)C1OC(O)=C(O)C1=O` (stereo not drawn) (library stock concentration (final ~1000-fold dilution): 10 mM), the “IRF Lucia reporter activity” value in the assay with RAW-Dual [1] (setting [4]) was determined as 0.22; in the assay on RAW-Dual [1] (agonist: LPS (TLR4) 0.1 ug/mL) it was 0.449.

Consider `COc1cc(C(=O)NC2CCN(C)CC2)ccc1Nc1ncc2c(n1)N(C1CCCC1)CC(F)(F)C(=O)N2C` (library stock concentration (final ~1000-fold dilution): 10 mM), for which the “IRF Lucia reporter activity” value came to 0.134 in the assay with RAW-Dual [3] (setting [4]) and 0.178 with RAW-Dual [3] (agonist: LPS (TLR4) 0.1 ug/mL).

On to `COc1cc(C(=O)NC2CCN(C)CC2)ccc1Nc1ncc2c(n1)N(C1CCCC1)CC(F)(F)C(=O)N2C`, for which, in the assay with RAW-Dual [2] (setting [5]), the “IRF Lucia reporter activity” value stood at 0.17.

With `O=C(NCc1cccc(O)c1)Nc1nc(-c2ccncc2)cs1`, the “IRF Lucia reporter activity” value in the assay on RAW-Dual [2] (setting [6]) amounted to 0.108.

As to `O=C(NCc1cccc(O)c1)Nc1nc(-c2ccncc2)cs1` (library stock concentration (final ~1000-fold dilution): 10 mM), the results for the “IRF Lucia reporter activity” value in the assay with RAW-Dual [1] (setting [4]) and in the assay on RAW-Dual [1] (agonist: LPS (TLR4) 0.1 ug/mL) were 0.113 and 0.231, respectively.

For the compound `COC(=O)CCc1ccc(OCC(O)CNC(C)C)cc1` (stereo not drawn) (library stock concentration (final ~1000-fold dilution): 10 mM), the “IRF Lucia reporter activity” value in the assay on RAW-Dual [1] (setting [4]) stood at 0.884; with RAW-Dual [1] (agonist: LPS (TLR4) 0.1 ug/mL), 0.262.

As to `COC(=O)CCc1ccc(OCC(O)CNC(C)C)cc1` (stereo not drawn), the “IRF Lucia reporter activity” value with RAW-Dual [2] (setting [6]) turned out to be 1.

As for `CN1C(C(=O)Nc2ccccn2)=C(O)c2ccccc2S1(=O)=O`, the “IRF Lucia reporter activity” value in the assay with RAW-Dual [2] (setting [6]) worked out at 0.974.

The record behind these values is the supplement of paper PMC10037445.
